# The whole screen tested about 220,000 compounds, of which about 5,700 (2.6%) were called active. The shares of active, inactive and inconclusive entries below differ from those in the screen. The call rests on the fitted dose curve; in most records, active means well fitted inhibition curve with a large enough effect; inconclusive means small, poorly fitted or top-dose-only effect; inactive means no such curve, though single readings can be large or run the other way. Where the call is inconclusive, the potency comes from a doubtful curve fit.
# Target: Lysine-specific demethylase 5B (Homo sapiens) (UniProt Q9UGL1)
# Sequence of UniProt Q9UGL1 (Q9UGL1 whole entry, looked up): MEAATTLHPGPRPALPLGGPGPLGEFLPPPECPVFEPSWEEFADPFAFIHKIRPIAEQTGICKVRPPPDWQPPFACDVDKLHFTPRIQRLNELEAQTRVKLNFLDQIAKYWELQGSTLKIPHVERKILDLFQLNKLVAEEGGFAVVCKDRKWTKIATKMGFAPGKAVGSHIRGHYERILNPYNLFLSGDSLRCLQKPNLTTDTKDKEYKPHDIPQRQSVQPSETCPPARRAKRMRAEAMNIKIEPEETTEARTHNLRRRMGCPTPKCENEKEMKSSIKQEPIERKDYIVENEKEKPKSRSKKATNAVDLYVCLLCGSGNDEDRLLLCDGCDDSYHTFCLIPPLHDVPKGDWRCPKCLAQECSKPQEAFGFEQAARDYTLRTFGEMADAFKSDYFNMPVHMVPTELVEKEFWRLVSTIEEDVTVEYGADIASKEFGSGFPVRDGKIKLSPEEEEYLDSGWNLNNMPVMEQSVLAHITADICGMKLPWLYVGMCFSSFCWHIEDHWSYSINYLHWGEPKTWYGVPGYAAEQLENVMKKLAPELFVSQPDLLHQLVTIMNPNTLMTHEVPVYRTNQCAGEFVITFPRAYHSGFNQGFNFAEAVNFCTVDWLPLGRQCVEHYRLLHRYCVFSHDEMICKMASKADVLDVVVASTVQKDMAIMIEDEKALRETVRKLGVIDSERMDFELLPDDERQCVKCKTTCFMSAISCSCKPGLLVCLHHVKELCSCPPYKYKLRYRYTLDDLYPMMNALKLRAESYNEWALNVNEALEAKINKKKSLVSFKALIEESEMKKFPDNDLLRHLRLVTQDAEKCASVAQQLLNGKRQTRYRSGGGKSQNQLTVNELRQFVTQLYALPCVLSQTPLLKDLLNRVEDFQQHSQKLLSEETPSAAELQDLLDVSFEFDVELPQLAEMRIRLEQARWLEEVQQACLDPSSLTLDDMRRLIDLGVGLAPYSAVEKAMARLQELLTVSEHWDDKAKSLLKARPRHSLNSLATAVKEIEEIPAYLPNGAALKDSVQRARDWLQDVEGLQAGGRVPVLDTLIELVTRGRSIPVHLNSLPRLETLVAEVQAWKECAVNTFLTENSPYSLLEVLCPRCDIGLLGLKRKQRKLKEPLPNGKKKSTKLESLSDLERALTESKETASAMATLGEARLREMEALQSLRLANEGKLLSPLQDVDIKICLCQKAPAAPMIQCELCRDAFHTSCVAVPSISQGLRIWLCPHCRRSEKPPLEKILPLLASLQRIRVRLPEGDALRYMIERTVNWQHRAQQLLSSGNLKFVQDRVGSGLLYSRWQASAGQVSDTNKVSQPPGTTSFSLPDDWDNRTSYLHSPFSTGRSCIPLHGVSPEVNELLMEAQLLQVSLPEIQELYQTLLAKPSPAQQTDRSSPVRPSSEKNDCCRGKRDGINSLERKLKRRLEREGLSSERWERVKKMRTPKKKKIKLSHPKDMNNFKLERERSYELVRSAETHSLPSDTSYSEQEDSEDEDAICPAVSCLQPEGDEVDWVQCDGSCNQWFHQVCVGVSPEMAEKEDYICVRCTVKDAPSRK
# Test: Primary screen for KDM5B Histone Demethylases FDH-coupled qHTS; further: nearly all actives have a fitted effect of over 70% in size; on activity change, negative = inhibition: 0% is about no effect
# Conditions: FDH-coupled NADH fluorescence (FDH is formaldehyde dehydrogenase); activity change, negative = inhibition: at 57.7 µM (top of the series) unless noted
# Method in brief: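 qHTS format, multiple compound concentrations. Buffer 50 mM HEPES pH 7.5/0.01% Tween-20; 200 nM KDM5BΔAP final; 10 min compound preincubation; substrate-mix levels 12.5 µM peptide, 25 µM α-KG, 0.25 mM NAD⁺; 30 min RT; ΔRFU.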
# Potency means the concentration at half of the fitted maximal effect; tags describe the fitted curve by direction and shape.
Compound,Potency,"activity change, negative = inhibition"
Cc1cc(C)cc(Nc2cc(-c3ccccc3)nc(C)n2)c1,"inconclusive: 35.5 µM [inhibitor, partial curve, poor fit]",
O=C(CSc1n[nH]c(-c2cc(Br)ccc2O)n1)N1CCCCC1,"inconclusive: 14.1 µM [inhibitor, partial curve, poor fit]",
CSc1ccc(/C=C/C(=O)OCC(=O)NC2CC2)cc1,"inconclusive: 20 µM [inhibitor, partial curve, poor fit]",
CCOc1ccc(CCNC(=O)CN2C(=O)COc3ccc(S(=O)(=O)N4CCC(C)CC4)cc32)cc1,"inconclusive: 2.24 µM [inhibitor, full curve, poor fit]",
Cc1ccc(NC(=O)CCn2cccn2)cc1Cl,inactive,
COCC1CN(Cc2ccc(Cl)cc2)CC12CCNCC2 (centres undefined),"inconclusive: 14.1 µM [inhibitor, partial curve]",
O=C(NCCN1CCOCC1)c1nn2c(C(F)(F)F)cc(-c3ccccc3)nc2c1Br,inactive,
O=C(c1ccco1)N1CC(F)(F)C[C@H]1c1nc(-c2ccncc2)no1,inactive,
Cc1cccc(-c2noc([C@@H]3Cc4nc[nH]c4CN3C(=O)COCC(=O)O)n2)c1,"inconclusive: 25.1 µM [inhibitor, partial curve, poor fit]",
Cn1cccc2[nH]c(=O)nc1-2,"inconclusive: 35.5 µM [inhibitor, single point]",
Cc1c(-c2ccccc2F)[nH]c2ccc(CNC(=O)CCN3CCCC3=O)cc12,active: 28.2 µM,
Cc1cnc2c(S(=O)(=O)NC(C3CC3)C3CC3)cccc2c1,inactive,
Cn1nc(CN2CCN(c3ccncc3)CC2)c2c(Cl)cccc21,inactive,
O=C(c1ccncc1)N1CCN(Cc2c[nH]c3ccccc23)CC1,"inconclusive: 15.8 µM [inhibitor, partial curve, poor fit]",
O=C(Cc1ccccc1)Nc1sc2c(c1C(=O)Nc1ccccc1Cl)CCC2,inactive,
Cc1cc(C(=O)N[C@H](C)c2onc(-c3cccnc3)c2C(=O)O)no1,"inconclusive: 56.2 µM [inhibitor, single point]",
CC(=O)Nc1ccc(S(=O)(=O)Nc2ccc3n(c2=O)C[C@H]2C[C@@H]3CN(C(=O)NC3CCCCC3)C2)cc1,"inconclusive: 35.5 µM [inhibitor, partial curve, poor fit]",
COc1ccc(-c2cc(NCc3ccc(F)cc3)n3cnnc3n2)cc1,"inconclusive: 25.1 µM [inhibitor, partial curve, poor fit]",
Cn1c(Cl)nc2c1c(=O)n(Cc1cccc(Cl)c1)c(=O)n2C,inactive,
Cc1cccc2nnc(N3CCCN(C(=O)c4ccccc4Cl)CC3)n12,active: 22.4 µM,
Cc1ccccc1CSc1nnc(C2CCN(C(=O)OC(C)(C)C)CC2)o1,inactive,
CCOc1ccccc1CNC(=O)c1cc(-c2ccc(Cl)s2)nc2ccccc12,"inconclusive: 28.2 µM [inhibitor, partial curve, poor fit]",
COc1cc2c(=O)n(-c3ccccc3)c(=O)n(CC(=O)Nc3ccc(C)cc3)c2cc1OC,inactive,

Compound,Potency,"activity change, negative = inhibition"
O=S(=O)(NCC(c1cccs1)S(=O)(=O)c1ccccc1)c1ccc(F)cc1 (centres undefined),"inconclusive: 25.1 µM [inhibitor, single point]",
Cc1ccc(NC(=O)Cn2nc3c(cc2=O)CCCCC3)cc1C,inactive,
COc1ccc(-c2nnc3ccc(N4CCc5ccccc5C4)nn23)nc1,"inconclusive: 31.6 µM [inhibitor, single point]",
CCOc1ccc(CN(C)CC(=O)Nc2ccc(F)c(Cl)c2)cc1,inactive,
O=C(Nc1cc(F)ccc1Cl)c1cnc(-c2ccccc2)nc1-c1ccncc1,inactive,
Cc1ccccc1N/N=C/c1c(C)nc2ccccn12,"inconclusive: 31.6 µM [inhibitor, single point]",
O=C(c1ccc2c(c1)OCCO2)N(Cc1cccnc1)c1nc2c(Cl)cccc2s1,"inconclusive: 15.8 µM [inhibitor, partial curve, poor fit]",
COc1cccc(Cn2c(CNS(=O)(=O)c3ccc(F)c(Cl)c3)nc3cccnc32)c1,,inconclusive: -39.5% [inhibitor]
CC1(C)SC(=S)N(c2ccccc2)C1/[N+]([O-])=C/c1cccc([N+](=O)[O-])c1 (centres undefined),inactive,
O=C(c1ccc(-c2ccc(CO)cc2)nc1)N1CCC(CCc2ccccc2)CC1,inactive,
CCN1c2cc(C(=O)Nc3ccccc3F)ccc2C(=O)N2CCCC21 (centres undefined),"inconclusive: 20 µM [inhibitor, partial curve, poor fit]",
CN1C(=O)Cc2cc(S(=O)(=O)N3CCN(c4ccc(Cl)cc4)CC3)ccc21,"inconclusive: 22.4 µM [inhibitor, single point]",
COc1ccc(CC(=O)NCc2csc(-c3cccs3)n2)cc1OC,"inconclusive: 39.8 µM [inhibitor, partial curve, poor fit]",
COc1ccc(-c2nnc(SCC(=O)Nc3cccc(C(F)(F)F)c3)nc2-c2ccc(OC)cc2)cc1,"inconclusive: 17.8 µM [inhibitor, partial curve, poor fit]",
FC(F)(F)c1ccccc1/C=N/Nc1ccc(Cl)c(Cl)c1,"inconclusive: 31.6 µM [inhibitor, single point]",
COCCOc1ccc2c(n1)CCN(C(=O)Cc1ccc(C)cc1)C2,"inconclusive: 22.4 µM [inhibitor, single point]",
COc1ccc(-c2cc3nc4c(c(=O)n3[nH]2)CN(C(=O)NCc2ccco2)CC4)cc1,active: 25.1 µM,
Cn1c(SCC(=O)Nc2cc(S(=O)(=O)N3CCCCCC3)ccc2Cl)nnc1C1CC1,inactive,
CCOc1ccc(CN(C)C(=O)Cn2nc(C(=O)O)c3ccccc3c2=O)cc1,inactive,
CCOc1ccc(NC(=O)c2c(NCc3cccnc3)sc3c2CCCC3)cc1,"inconclusive: 25.1 µM [inhibitor, partial curve, poor fit]",
CCCCNC(=O)c1nnn2cc(-c3ccc(Cl)cc3)[nH]c(=O)c12,active: 8.91 µM,
Cc1ccsc1C(=O)N1C[C@@H]2CCCN3CCC[C@@H]([C@H]23)[C@H]1CCCC(=O)N1CCOCC1,inactive,
O=C(Nc1ccc2c(N3CCCC3)ncnc2c1)c1ccc(Cl)cc1,"inconclusive: 35.5 µM [inhibitor, partial curve, poor fit]",

Compound,Potency,"activity change, negative = inhibition"
CCN(C(=O)c1cccs1)c1ccccc1C,inactive,
CC(=O)Nc1ccc(NC(=O)c2cc(-c3cccs3)nc3ccccc23)cc1,"inconclusive: 22.4 µM [inhibitor, single point]",
CCCn1c(=O)c2sc(N3CCCC3)nc2n(CC(=O)Nc2cc(C)ccc2OC)c1=O,inactive,
Cc1cccc(N(CC(O)Cn2c3ccccc3c3ccccc32)S(=O)(=O)c2ccc(F)cc2)c1 (centres undefined),"inconclusive: 39.8 µM [inhibitor, partial curve, poor fit]",
CC(C)c1ccc(NC(=O)c2cc3sc(Cl)cc3n2C)cc1,"inconclusive: 35.5 µM [inhibitor, single point]",
Cc1nn2c(c1-c1ccccc1Oc1ccccc1)N(Cc1cccc(O)c1)CCC2,"inconclusive: 35.5 µM [inhibitor, partial curve, poor fit]",
COc1ccc(NC(=O)c2n[nH]c3ccccc23)cc1S(=O)(=O)Nc1ccccc1Cl,"inconclusive: 31.6 µM [inhibitor, single point]",
CCN1c2cc(C(=O)Nc3ccc(C)c(Cl)c3)ccc2C(=O)N2CCCC21 (centres undefined),"inconclusive: 20 µM [inhibitor, partial curve, poor fit]",
CCC(=O)Nc1nnc(S(=O)(=O)N(C)c2ccccc2)s1,"inconclusive: 25.1 µM [inhibitor, single point]",
FC1(F)CN[C@H](c2nc(-c3ncccn3)no2)C1,"inconclusive: 12.6 µM [inhibitor, partial curve, poor fit]",
O=C(CCc1ccccc1)NC1CCN(c2nnc3ccccn23)CC1,active: 25.1 µM,
Cc1c(Cl)cccc1NC(=O)CSc1ncc2c(n1)-c1ccccc1N(C)S2(=O)=O,"inconclusive: 14.1 µM [inhibitor, partial curve, poor fit]",
O=C(NC1CCCc2c1[nH]c1c(Cl)cccc21)c1ccco1 (centres undefined),"inconclusive: 11.2 µM [inhibitor, partial curve]",
CCNc1nc2c(s1)C(c1cccc(F)c1)CC(=O)N2 (centres undefined),active: 25.1 µM,
N#Cc1ccc(S(=O)(=O)NC2CCN(Cc3ccccc3)CC2)cc1,"inconclusive: 25.1 µM [inhibitor, partial curve, poor fit]",
Cc1cc(CSc2nnc(-c3cccnc3)n2C)no1,inactive,
CC(C)c1ccc(CN(C(=O)Cc2c[nH]c3ccccc23)C2CC2)cc1,"inconclusive: 12.6 µM [inhibitor, partial curve, poor fit]",
CCOc1ccc(C(=O)Nc2nnc(C3=COCCO3)o2)cc1,"inconclusive: 17.8 µM [inhibitor, single point]",
Cc1ccc2nc(C)ccc2c1,inactive,
CC(C)N(Cc1ccccn1)C(=O)c1cc(-c2cccs2)nc2ccccc12,"inconclusive: 17.8 µM [inhibitor, partial curve, poor fit]",
CC(NC(=O)/C(C#N)=C\c1ccccc1)C1CC2CCC1C2 (centres undefined),"inconclusive: 28.2 µM [inhibitor, single point]",
O=C(NCc1ccc(F)cc1)c1noc(-c2ccc3c(c2)OCO3)n1,"inconclusive: 31.6 µM [inhibitor, single point]",
Cc1noc(-c2ccc(OC3CN(C(=O)c4cccc5[nH]ccc45)C3)cc2)n1,active: 28.2 µM,
